In all, about 410,000 compounds went through this assay and about 7,200 (1.8%) were called active. The inconclusive results got no clear call from the source; some entries with a clear call stand among them for comparison. The call rests on the fitted dose curve; in most records, active means well fitted activation curve with a large enough effect; inconclusive means small, poorly fitted or top-dose-only effect, or another doubt; inactive means no such curve, though single readings can be large or run the other way. No potency is given beside an inconclusive call; the fits are too rough.
Assay: qHTS of TDP-43 Inhibitors; further: nearly all actives have a fitted effect of over 50% in size; on growth rescue (activation): % of control where 0% means no effect
Conditions: TDP-43 expressing yeast growth rescue, BacTiter-Glo, 24 h; growth rescue (activation): at 46.1 µM (top of the series) unless noted
Outline: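 Yeast cells expressing TDP-43 under galactose induction are exposed to compounds for 24 hr at 30 deg C. BacTiter-Glo luminescence measures growth, so protective compounds score as activators.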
With `Cc1c(Nc2ncccc2C(=O)O)cccc1C(F)(F)F` the Potency was inconclusive [activator, partial curve, poor fit].
In the case of `CCOc1ccc(-c2cc(C)n3nc(C(=O)Nc4ccc(C)c(C)c4)cc3n2)cc1`, the “growth rescue (activation)” value is reported as inactive: 10%.
In the case of `Cc1ccc(S(=O)(=O)c2cn(CC(=O)Nc3ccc4c(c3)OCO4)c3ccc(C)cc3c2=O)cc1`, the “growth rescue (activation)” value is reported as inactive: 14%.
For `Fc1cccc(Cl)c1C1SCc2nc3ccccc3n21` (configuration not stated), the Potency was active: 12.6 µM.
With `COc1ccc(-c2ccc(CCC(=O)O)n2-c2ccccc2C(F)(F)F)cc1` the Potency was inconclusive [activator, single point].
With `COCc1ccc(C(=O)NC2CCCc3c2cnn3-c2cc(C)cc(C)c2)s1` (configuration not stated) the Potency was inconclusive [activator, single point].
In the case of `O=C(Nc1nccs1)c1cc2c(s1)CCCCC2`, the Potency is reported as inconclusive [activator, single point].
In the case of `O=C1CSC(c2ccccc2Br)N1c1ccc(Cl)cn1` (configuration not stated), the Potency is reported as inconclusive [activator, single point].
For `CC1=CC(C)(C(Cl)(Cl)Cl)C(C)=CC1=NO` (configuration not stated), the Potency was inconclusive [activator, partial curve].
With `O=C(COc1cccc2cccnc12)N/N=C/c1ccccc1O` the “growth rescue (activation)” value was inactive: 1.34%.
For `CC1(C(=O)NC2CCCC2)CCN1C(=O)Cc1ccc(-c2ccccc2)cc1` (configuration not stated), the Potency was inconclusive [activator, partial curve].
For `COc1ccc(NC(=O)COC(=O)CCC2CCCC2)c(OC)c1`, the Potency was inconclusive [activator, partial curve].
For `O=C(c1ccco1)N1CCN(c2nc3ccc(Cl)cc3s2)CC1`, the Potency was active: 11.2 µM.
With `CCn1ccc2cc(S(=O)(=O)N3CCC(C(=O)NCCOC)CC3)ccc21` the Potency was inconclusive [activator, partial curve].
In the case of `Cc1ccc(C)c(N2CCN(C(=O)c3cccn3-c3nnc(N4CCCCC4)s3)CC2)c1`, the “growth rescue (activation)” value is reported as inactive: 7.59%.
With `Cc1nn(CC(=O)NCCc2ccc(Cl)cc2)c(=O)c2cccn12` the Potency was inconclusive [activator, single point].
For `COc1ccc(C(=O)N2CCCC(c3ccccc3)C2)cc1` (configuration not stated), the Potency was inconclusive [activator, single point].
In the case of `O=C(NCCc1ccc(F)cc1)NC12CC3CC(CC(C3)C1)C2`, the “growth rescue (activation)” value is reported as inactive: 4.44%.
For `Fc1ccc(-c2nc3ccc(Br)cn3c2Cc2ccsc2)cc1`, the Potency was inconclusive [activator, single point].
In the case of `C=CCn1c(SCC#N)nc2sc(CC)cc2c1=O`, the Potency is reported as inconclusive [activator, single point].
For `CC1(C)CC2CC(C)(CN2C(=O)CCCN2C(=O)c3ccccc3C2=O)C1` (configuration not stated), the Potency was inconclusive [activator, single point].
In the case of `COc1ccc(S(=O)(=O)N2CCCCCC2)cc1C(=O)NCCc1ccc(F)cc1`, the Potency is reported as inconclusive [activator, partial curve].
With `COc1cccc(-c2ccccc2C2=CC(=O)CC(C)(C)C2=O)c1` the Potency was inconclusive [activator, partial curve].
With `CCCn1nc(NC(=O)CC)c2cc3cccc(C)c3nc21` the “growth rescue (activation)” value was inactive: -8.5%.
With `COc1ccccc1-c1noc(CCC(=O)N2CCN(c3cc(C)ccc3C)CC2)n1` the Potency was inconclusive [activator, single point].
In the case of `O=C(Cn1cc2c(n1)CCCCC2)Nc1ccccc1Cl`, the Potency is reported as inconclusive [activator, single point].
In the case of `O=C(CSc1nnnn1-c1ccccc1)N1CCCc2ccccc21`, the Potency is reported as inconclusive [activator, partial curve].
With `O=C1CCCCCC(=O)[C@H](O)C[C@H](c2ccccc2)O1` the “growth rescue (activation)” value was inactive: 11.8%.
For `COc1ccc(C(CC(=O)Nc2ccc(OC)c(OC)c2)N2Cc3ccccc3C2=O)cc1` (configuration not stated), the “growth rescue (activation)” value was inactive: 17.4%.
With `Cc1ccc(S(=O)(=O)N2[C@@H](c3ccc(Cl)cc3)C(C(=O)O)=CC[C@H]2c2cccc(C)c2)cc1` the Potency was inconclusive [activator, full curve, poor fit].
With `O=C(N/N=C/c1coc2ccc(Cl)cc2c1=O)c1ccc(O)cc1` the growth rescue (activation) was inconclusive: -67.4% [activator].
With `Cn1c2c(c(=O)n(C)c1=O)C1(C(=O)Nc3ccccc31)C(C#N)=C(N)O2` (configuration not stated) the Potency was inconclusive [activator, partial curve].
For `Cc1ccc(N2CCN(C(=O)C3CCC(CNS(=O)(=O)c4ccc(Br)s4)CC3)CC2C)cc1` (configuration not stated), the “growth rescue (activation)” value was inactive: 6.16%.
With `Cc1ccc([C@@H]2CC(=O)[C@@H]3CN(S(=O)(=O)c4ccc(C)cc4)[C@H](c4ccccc4)C[C@@H]3N2S(=O)(=O)c2ccc(Cl)cc2)cc1` the Potency was inconclusive [activator, partial curve, poor fit].
With `COc1ccc(OC)c(/C=C/C(=O)OCC(=O)N2C(C)CCCC2C)c1` (configuration not stated) the Potency was inconclusive [activator, single point].
For `Cc1ccc2nc(SCc3nc(-c4ccccc4C)no3)[nH]c2c1`, the Potency was inconclusive [activator, single point].
In the case of `Cc1nc(Cl)sc1C(=O)Nc1cccc(Cl)c1C`, the Potency is reported as inconclusive [activator, partial curve].
With `COc1ccc(CCNC(=O)C2CC(c3cccc([N+](=O)[O-])c3)=NO2)cc1` (configuration not stated) the Potency was inconclusive [activator, partial curve].
With `O=C(Nc1ccc(Cl)c([N+](=O)[O-])c1)C(Sc1ccccc1)c1ccccc1` (configuration not stated) the Potency was inconclusive [activator, partial curve].
In the case of `O=C(NC(=S)Nc1cc(Cl)ccc1Cl)c1ccco1`, the Potency is reported as inconclusive [activator, partial curve].
In the case of `O=S(=O)(NCCOCC(F)(F)C(F)F)c1ccc2oc3ccccc3c2c1`, the Potency is reported as inconclusive [activator, single point].
For `CC(C)(C)c1ccc(C(=O)N2CC(=O)Nc3ccc(F)cc3C2c2ccc(F)cc2)cc1` (configuration not stated), the Potency was inconclusive [activator, partial curve].
With `Cc1cc(C)c2oc(-c3cccc(NC(=O)c4cc5ccccc5o4)c3)nc2c1` the Potency was inconclusive [activator, partial curve].
For `O=C(c1ccccc1F)N1CCCC(c2ccccc2)C1` (configuration not stated), the Potency was inconclusive [activator, partial curve].
With `COc1ccc(NC(=O)CSc2ccc(-c3cccnc3)nn2)cc1` the Potency was inconclusive [activator, full curve].
For `Cc1ccc(NC(=O)c2cc(CC(C)C)nc3ccccc23)cc1`, the Potency was inconclusive [activator, single point].
In the case of `COc1ccc(-c2nnc3ccc(SC)nn23)cc1`, the Potency is reported as inconclusive [activator, single point].
In the case of `COC(=O)C1=C(C)N(Cc2ccccc2)C(=S)N[C@H]1c1ccc(Br)cc1`, the Potency is reported as active: 15.8 µM.
In the case of `Cc1cccc(NC(=O)c2ccc([N+](=O)[O-])s2)c1C`, the Potency is reported as active: 11.2 µM.
In the case of `COc1ccc(C)cc1NC(=O)c1nc2nc(C)cc(C)n2n1`, the Potency is reported as inconclusive [activator, partial curve, poor fit].
In the case of `COc1ccc(S(=O)(=O)Nc2ccc3c(c2)CCC3)cc1`, the Potency is reported as inconclusive [activator, single point].
In the case of `COc1ccccc1Cc1c(-c2ccco2)nc2ccc(Br)cn12`, the Potency is reported as inconclusive [activator, partial curve].
For `COc1ccc(-c2nnc(NC(=O)C(C)C)s2)c(OC)c1`, the Potency was inconclusive [activator, full curve, poor fit].
For `COc1ccc(CCN=C(NS(=O)(=O)c2ccccc2)c2ccccc2)cc1OC`, the “growth rescue (activation)” value was inactive: -10.3%.
With `Cc1ccc(-n2c(C)cc(C(=O)CSc3nnc4ccccn34)c2C)cc1` the Potency was inconclusive [activator, single point].
For `CCc1cccc(NC(=O)c2nc(-c3ccncc3)no2)c1`, the Potency was inconclusive [activator, partial curve].
For `FC(F)(F)Oc1ccc(Nc2nc(N3CCOCC3)nc(N3CCOCC3)n2)cc1`, the Potency was inconclusive [activator, single point].
In the case of `Cc1ccc(S(=O)(=O)N2CCN(c3cnn(C)c(=O)c3Cl)CC2)cc1`, the “growth rescue (activation)” value is reported as inactive: -19.3%.
In the case of `Cc1sc(NC(=O)c2c(F)cccc2F)nc1-c1ccccc1`, the Potency is reported as inconclusive [activator, single point].
For `COc1ccc(OCC(=O)Sc2ccc(C)cc2)cc1`, the Potency was inconclusive [activator, single point].
In the case of `CCC(C(=O)Nc1cc(C(=O)Nc2cc(C)ccn2)ccc1Cl)c1ccccc1` (configuration not stated), the Potency is reported as inconclusive [activator, full curve, poor fit].
For `CCOc1ccc(-c2csc(N)c2C(=O)OC)cc1`, the Potency was inconclusive [activator, single point].
In the case of `CC1(Cc2ccccc2C#N)C(=O)Nc2ccc(-c3ccccc3)cc21` (configuration not stated), the Potency is reported as inconclusive [activator, partial curve].
For `O=C1C(Cl)=C(N2CCOCC2)C(=O)N1c1cccc(Cl)c1`, the Potency was inconclusive [activator, single point].
For `Cc1ccc(S(=O)(=O)Oc2ccccc2/C=N/O)cc1`, the Potency was inconclusive [activator, partial curve].
For `CCCCc1ccc(C(=O)Nc2ccc3nc(N(CC)CC)cc(C)c3c2)cc1`, the Potency was inconclusive [activator, single point].
In the case of `CNC(=O)CSc1nnc(-c2cc(C)cc(C)c2)o1`, the “growth rescue (activation)” value is reported as inactive: -9.12%.
Potency means the concentration at half of the fitted maximal effect; tags describe the fitted curve by direction and shape.
